Measurements published in PubChem BioAssay AID686979 (National Center for Advancing Translational Sciences (NCATS), 2013).
Where “and” joins values, the source holds several entries; their conditions need not be identical. Equal entries are not always repeated. In all, about 420,000 compounds went through this assay and about 50,000 (12%) were called active. Inconclusive results, whose numbers are uncertain, are shown with a selection of clear calls. The call rests on the fitted dose curve; in most records, active means well fitted inhibition curve with a large enough effect; inconclusive means small, poorly fitted or top-dose-only effect; inactive means flat fitted curve, though single readings scatter. Potencies of inconclusive entries are doubtful fits and often do not repeat.

Assay: qHTS for Inhibitors of human tyrosyl-DNA phosphodiesterase 1 (TDP1): qHTS in cells in presence of CPT; further: nearly all actives have a fitted effect of over 55% in size
Details: chicken DT40 Tdp1-/-;hTDP1 cells + 20 nM CPT, ATP luminescence, 48 h; activity change, negative = growth inhibition: at 46.2 µM (top of the series) unless noted
Method in brief: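 Cell growth measured by CellTiter-Glo luminescence after a minimum 48 h, 37 C compound exposure with 20 nM CPT in Tdp1-knockout DT40 cells stably expressing hTDP1, seeded 400/well; qHTS titration format.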
On the % scale 0 is the no-effect control and ±100 the full control effect; potency means the concentration at half of the fitted maximal effect; tags describe the fitted curve by direction and shape.

SMILES | Potency | activity change, negative = growth inhibition
COc1ccc2c(c1OC)CN1CCc3cc4c(cc3[C@H]1C2)OCO4 | active: 14.6 µM | –
Nc1cc(C(=O)Nc2ccccc2F)ccc1N1CC2CC(C1)c1cccc(=O)n1C2 (centres undefined) | inconclusive: 16.4 µM [inhibitor, partial curve] | –
CCc1ccc(N2C(=O)NC(=O)/C(=C\c3cc(C)n(-c4cc(C(=O)O)cc(C(=O)O)c4)c3C)C2=O)cc1 | inactive | –
O=c1c2ccccc2nc(/C=C/c2ccccc2F)n1-c1cccc(O)c1 | inconclusive: 23.1 µM [inhibitor, single point] | –
CC(C)C[C@H](NC(=O)[C@H](Cc1ccccc1)NC(=O)CNC(=O)CNC(=O)[C@@H](N)Cc1ccc(O)cc1)C(=O)N[C@@H](CCCN=C(N)N)C(=O)N[C@@H](CCCCN)C(=O)N[C@@H](Cc1ccc(O)cc1)C(=O)N1CCC[C@H]1C(=O)N[C@@H](CCCCN)C(=O)O | – | inactive: 8.46% [at 4.12 µM]
ClCCN(CCCl)c1ccc(C=NNc2ncccn2)cc1 | active: 4.61 µM | –
CC(C)CC1C(=O)N(Cc2cn(CC3CCCCC3)nn2)CCS(=O)(=O)N1Cc1ccc(-c2ccc(F)nc2)cc1 (centres undefined) | active: 20.6 µM | –
CN1C[C@H](CO)C=C2c3cccc4[nH]cc(c34)C[C@H]21 | active: 3.66 µM | –
Oc1ccc2c3c1O[C@H]1c4c(c5ccccc5n4Cc4ccccc4)C[C@@]4(O)C(C2)N(CC2CC2)CC[C@]314 | active: 5.17 µM | –
CCc1nc(SC)ncc1C(=O)Nc1ccc(Cl)cc1C(=O)c1ccccc1 | inactive | –
COC1=CC(=O)OC(/C=C/c2ccccc2)C1 (centres undefined) | inactive | –
COc1ccc2sc(-c3ccccc3OC)c(-c3ccc(OCCN4CCOCC4)cc3)c2c1 | inconclusive: 20.6 µM [inhibitor, single point] | –
Cc1cccc(-c2nn3c(=O)cc(CN4CCN(C(=O)COc5ccc(Cl)cc5)CC4)nc3s2)c1 | – | inconclusive: -31.4% [inhibitor]
COc1ccc(N=Cc2c(O)n(-c3ccc(C)cc3)c(=O)[nH]c2=O)cc1 | inactive | –
CCOc1ccccc1NC(=O)NCc1ccc2c(c1)CCN2C(=O)c1ccccc1 | active: 23.1 µM | –
COCC(C)N(C(=O)CCl)c1c(C)csc1C (centres undefined) | inactive | –
N#CCCn1cc(C(=O)Nc2ccc(F)cc2)c(-c2ccc([N+](=O)[O-])cc2)n1 | inconclusive: 29.1 µM [inhibitor, single point] | –
O=c1c2ccccc2nc(-c2ccccc2)n1-c1ccccc1 | inconclusive: 25.9 µM [inhibitor, single point] | –
CC(C)=CCN1CC[C@@]2(C)c3cc(O)ccc3C[C@@H]1[C@@H]2C | inconclusive: 33.7 µM [inhibitor, partial curve] | –
CN1C(=O)C2C[C@@]3(Br)c4ccccc4N(OOSc4ccccc4)[C@H]3N2C(=O)[C@@H]1Cc1ccccc1 (some centres undefined) | inconclusive: 29.1 µM [inhibitor, single point] | –
Cn1c(=O)c2c(nc(SCc3ccccc3)n2Cc2ccc(Cl)cc2)n(C)c1=O | inconclusive: 29.1 µM [inhibitor, single point] | –
CCn1c(O)c(/C=N/NC(=O)c2ccccc2)c(=O)n(CC)c1=S | inconclusive: 29.1 µM [inhibitor, single point] | –

SMILES | Potency | activity change, negative = growth inhibition
O=C(NCc1ccccc1)Oc1cccc(Cl)c1 | inconclusive: 29.1 µM [inhibitor, single point] | –
CC(C)(C)c1ccc(/C=C2\Oc3cc(OC(=O)N4CCOCC4)ccc3C2=O)cc1 | active: 16.4 µM | –
CC(OC(=O)c1cn(C)c2ccccc12)C(=O)N(C)c1ccccc1 (centres undefined) | inactive | –
CCOC(=O)C(NC(=O)C(Cc1ccc(N(CCCl)CCCl)cc1)NC(C)=O)C(C)C (centres undefined) | inactive | –
Oc1ccc2c3c1O[C@H]1c4c(c5ccccc5n4Cc4ccccc4)C[C@]4(O)[C@H](C2)N(CC2CC2)CC[C@@]314 | active: 11.9 µM | –
COc1cccc(C(=O)c2c(N)c(-c3nc(-c4ccccc4)cs3)c3ccccn23)c1 | inconclusive: 25.9 µM [inhibitor, single point] | –
O=C(c1ccco1)C12CN3CN(CN(C3)C1)C2 | inconclusive: 18.4 µM [inhibitor, partial curve] | –
C=CCn1c(O)c(/C(C)=N/NC(=S)Nc2ccccc2)c(=O)[nH]c1=O | inconclusive: 29.1 µM [inhibitor, single point] | –
O=c1c2ccc(Cl)cc2[nH]c(=S)n1-c1cccnc1 | inactive | –
CC(=O)NNC(=O)CN1C(=O)CN=C(c2ccccc2)c2cc(Br)ccc21 | inactive | –
COc1ccccc1CN1CCN(Cc2ccc(Cl)cc2)CC1 | inactive | –
O=C1NC(=O)N(CCc2ccc(F)cc2)C(=O)/C1=C/c1ccco1 | inconclusive: 16.4 µM [inhibitor, single point] | –
CCN1CCN(Cc2cc(OC)c3c(c2)OCO3)CC1 | inactive | –
NC(Cc1cc(O)c(O)cc1O)C(=O)O (centres undefined) | active: 5.01 µM | –
CC1CCN(C(=O)C(C)Cl)CC1 (centres undefined) | inactive | –
CCC(C)C(=O)OC1C2CC3=C4CC(=O)OC(c5ccoc5)[C@]4(C)CCC3[C@@](C)(C2=O)C(CC(=O)OC)C1(C)C (some centres undefined) | inconclusive: 29.1 µM [inhibitor, single point] | –
O=c1oc2ccccc2n1CSC1=NCCS1 | inconclusive: 29.1 µM [inhibitor, single point] | –
C/C=C1/C[C@@H](C)[C@](O)(CO)C(=O)OCC2=CCN3CC[C@@H](OC1=O)C23 (some centres undefined) | inconclusive: 13.3 µM [inhibitor, full curve] | –
CC1(C)OC(c2ccccc2)=C/C(=C/C=C2C(=O)NC(=S)NC2=O)O1 | inconclusive: 23.1 µM [inhibitor, single point] | –
O=C1C=C2C(=CCOC2O)O1 (centres undefined) | active: 0.103 µM | –
CCOC(=O)[C@]12Cc3c(cc(OC)c(OC)c3OC)[C@H]1N(Cc1ccccc1)C(=O)c1ccccc12 | inconclusive: 22.4 µM [inhibitor, single point] and inconclusive: 29.1 µM [inhibitor, single point] | –
c1ccc(-c2nnc(SCc3nc4ccccc4[nH]3)o2)cc1 | inconclusive: 20.6 µM [inhibitor, single point] | –
